In article PMC12627648:
These are yes or no findings as the source states them, for the method shown. Binding seen in cells or lysates may run through a third protein. Some entries that bind do so weakly or less than the wild type. For some of these results: Sequences can lack the tags named with a protein.

Sequences of proteins named here, by UniProt entry; tags and fusion partners are left off.
UniProt P42224: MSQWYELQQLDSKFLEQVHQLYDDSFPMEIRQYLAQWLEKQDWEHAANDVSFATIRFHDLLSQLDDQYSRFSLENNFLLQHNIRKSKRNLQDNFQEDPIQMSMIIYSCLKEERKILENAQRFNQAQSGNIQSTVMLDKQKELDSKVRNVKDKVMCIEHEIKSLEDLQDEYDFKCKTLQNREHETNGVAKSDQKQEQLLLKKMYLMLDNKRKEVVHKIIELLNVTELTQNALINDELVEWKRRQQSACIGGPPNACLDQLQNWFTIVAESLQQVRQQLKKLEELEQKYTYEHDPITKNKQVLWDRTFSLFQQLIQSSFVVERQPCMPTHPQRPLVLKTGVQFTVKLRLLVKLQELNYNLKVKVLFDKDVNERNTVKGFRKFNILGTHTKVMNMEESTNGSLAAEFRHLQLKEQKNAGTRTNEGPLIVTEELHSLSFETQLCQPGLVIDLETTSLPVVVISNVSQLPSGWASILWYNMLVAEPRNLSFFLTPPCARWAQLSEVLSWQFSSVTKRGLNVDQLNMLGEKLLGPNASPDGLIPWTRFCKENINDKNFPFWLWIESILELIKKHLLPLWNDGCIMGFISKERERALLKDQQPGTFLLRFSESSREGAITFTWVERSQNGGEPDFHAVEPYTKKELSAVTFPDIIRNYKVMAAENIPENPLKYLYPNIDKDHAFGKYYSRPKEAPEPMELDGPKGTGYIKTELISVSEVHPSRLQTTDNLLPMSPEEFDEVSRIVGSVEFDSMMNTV
UniProt P19474: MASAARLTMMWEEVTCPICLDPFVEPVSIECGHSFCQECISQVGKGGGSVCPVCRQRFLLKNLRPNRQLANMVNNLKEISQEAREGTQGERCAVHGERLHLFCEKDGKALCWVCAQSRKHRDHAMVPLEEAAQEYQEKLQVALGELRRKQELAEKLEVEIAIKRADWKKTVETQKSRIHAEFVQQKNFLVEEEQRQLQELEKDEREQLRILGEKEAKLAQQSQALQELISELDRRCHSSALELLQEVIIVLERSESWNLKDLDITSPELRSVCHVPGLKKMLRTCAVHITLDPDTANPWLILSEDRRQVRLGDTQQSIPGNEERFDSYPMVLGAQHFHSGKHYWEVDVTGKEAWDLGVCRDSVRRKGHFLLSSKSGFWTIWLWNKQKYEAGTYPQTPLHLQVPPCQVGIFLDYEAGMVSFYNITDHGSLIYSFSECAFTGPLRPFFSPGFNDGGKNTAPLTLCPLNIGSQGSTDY

Experiments:
Flag-TREM2 [1] = target: T1, Flag-TREM2 (UniProt Q9NZC2); experiment: co-IP; HEK293T cells transfected with tagged TREM2, TRIM21, STAT1 (full length or truncation mutants) or SYK; increasing doses of MYC-TRIM21 in the presence of MG132 in one panel
T1 sequence: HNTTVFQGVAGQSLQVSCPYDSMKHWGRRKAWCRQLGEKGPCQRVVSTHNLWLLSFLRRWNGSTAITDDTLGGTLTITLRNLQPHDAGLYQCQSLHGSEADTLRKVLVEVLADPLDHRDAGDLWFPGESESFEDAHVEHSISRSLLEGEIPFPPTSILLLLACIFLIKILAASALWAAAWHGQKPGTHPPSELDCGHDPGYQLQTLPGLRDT

Flag-TREM2 [2] = target: T1, Flag-TREM2; experiment: co-IP; sequential IP assays (two successive immunoprecipitations) of TREM2, TRIM21 and STAT1
HA-STAT1 (full length) [3] = target: HA-STAT1 (full length) (UniProt P42224); experiment: co-IP; HEK293T cells transfected with tagged TREM2, TRIM21, STAT1 (full length or truncation mutants) or SYK; increasing doses of MYC-TRIM21 in the presence of MG132 in one panel
HA-STAT1 (full length) [4] = target: HA-STAT1 (full length) (UniProt P42224); experiment: co-IP; sequential IP assays (two successive immunoprecipitations) of TREM2, TRIM21 and STAT1
GST-STAT1 = GST-STAT1 (UniProt P42224); experiment: pull-down; GST fusion proteins from E. coli BL21 (DE3), Pierce GST Protein Interaction Pull-Down Kit; the SYK-STAT1 pull-down with or without TREM2
[5] = target: T2, triggering receptor expressed on myeloid cells 2 (TREM2), endogenous in TAMs (human (endogenous in THP-1-induced TAMs)) (UniProt Q9NZC2); experiment: co-IP; endogenous proteins in lysates of THP-1-induced TAMs; antibody or IgG overnight at 4 °C, protein A/G magnetic beads, four washes; also in TREM2 overexpression and knockdown TAMs
T2 sequence: T1 sequence

HA-STAT1 (full length) (from UniProt P42224 1-750)
binding (Flag-TREM2 [1]): binds | binding (Flag-TREM2 [2]): binds

Myc-TRIM21 (from UniProt P19474 1-475) (enzyme)
binding (HA-STAT1 (full length) [3]): binds | binding (Flag-TREM2 [2]): no binding | binding (HA-STAT1 (full length) [4]): binds

Tripartite Motif Containing 21 (TRIM21) (partner of GST-STAT1 in the GST pull-down) (from UniProt P19474 1-475) (enzyme)
binding (GST-STAT1): binds

signal transducer and activator of transcription 1 (STAT1), endogenous in TAMs (from UniProt P42224 1-750)
binding [5]: binds
